Measured values taken from the supplement of paper PMC3334620.
Whole data set: some 33,000 sequences, median “E-score (-0.5 to 0.5)” near -0.035, cut for the highest 2% near 0.34. The list shows a part of the results.

The sequences below were run against T1, Mot3 (UniProt P54785) (assay: PBM E-score (8-mer binding enrichment) (E-score (-0.5 to 0.5)); higher = stronger / more preferred TF binding; most listed sequences are background and not binding sites). Conditions: protein concentration: 200 nM; construct: GST-full length.
T1 sequence: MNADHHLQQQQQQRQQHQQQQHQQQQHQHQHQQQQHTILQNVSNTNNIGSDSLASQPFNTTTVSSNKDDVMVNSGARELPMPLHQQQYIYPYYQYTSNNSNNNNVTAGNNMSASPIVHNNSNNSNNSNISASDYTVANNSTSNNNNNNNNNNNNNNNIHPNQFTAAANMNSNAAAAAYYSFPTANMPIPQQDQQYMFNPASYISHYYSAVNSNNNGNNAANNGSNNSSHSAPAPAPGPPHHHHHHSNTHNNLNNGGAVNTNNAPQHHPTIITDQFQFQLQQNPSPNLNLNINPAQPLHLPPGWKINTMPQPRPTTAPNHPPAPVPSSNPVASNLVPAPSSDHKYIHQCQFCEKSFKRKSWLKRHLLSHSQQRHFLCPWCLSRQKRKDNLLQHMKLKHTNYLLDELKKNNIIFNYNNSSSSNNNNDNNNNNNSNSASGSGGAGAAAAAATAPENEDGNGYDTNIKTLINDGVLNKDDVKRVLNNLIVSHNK
Experimental: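 Universal 'all 10-mer' protein binding microarrays (Agilent AMADID 015681) probed with GST-tagged S. cerevisiae TFs (full-length or DBD) made by in vitro transcription/translation (PURExpress), about 100-200 nM. Bound TF was detected with fluorescent anti-GST. Each ungapped 8-mer (which stands for itself and its reverse complement) is scored by the PBM enrichment score (E-score), a modified Wilcoxon-Mann-Whitney statistic from -0.5 to +0.5, computed with the Universal PBM Analysis Suite. Scale: above 0.35 generally sequence-specific binding.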

Row | Sequence | PBM E-score
1 | ATTGTACA | 0.269
2 | AAGTACGC | 0.154
3 | CTTGAGGC | 0.0947
4 | AACAGTAC | 0.143
5 | GTGACAGA | 0.0206
6 | ACTGAACG | -0.128
7 | ATGTCTGG | -0.0238
8 | AGAATTCT | -0.0542
9 | CCTGTCGC | -0.046
10 | AGGGAATG | -0.0864
11 | AGACTTTA | 0.0248
12 | AGCACAGA | 0.208
13 | GAAATCTA | 0.0868
14 | AGACAGTG | -0.00533
15 | GAATAGCA | -0.0702
16 | CCTTTTTC | 0.203
17 | GTAGTTTA | 0.213
18 | GAAACGAC | -0.00969
19 | AAAAAAAC | 0.0698
20 | ACCCCGTA | -0.162
21 | ACTTGAGG | -0.253
22 | GCTGCACA | -0.00094
23 | ACCTAACA | 0.158
24 | CAAGGACG | -0.16
25 | CCGACTGA | -0.257

Row | Sequence | PBM E-score
26 | CCGACGCC | 0.00363
27 | AATAGGGT | 0.0289
28 | CACACTCA | -0.0253
29 | CCCGGGCC | -0.252
30 | ATGTGGCG | -0.117
31 | GCCCTCGC | -0.261
32 | GTGTATAA | 0.343
33 | AGCCTCCC | -0.279
34 | ATACACTA | 0.124
35 | CAAATCAA | 0.322
36 | CCGCACAC | -0.282
37 | CAAGTATG | -0.0772
38 | TCGAGCGA | -0.0423
39 | ACACAAAG | 0.224
40 | ACAGTACA | 0.155
41 | AATTGTCC | 0.00548
42 | AGATCGGA | -0.029
43 | CCTGATTA | 0.247
44 | CACGCTCC | 0.074
45 | CAGATATA | 0.0491
46 | CGAATCCG | 0.14
47 | AATCCTTA | 0.194
48 | CCTTTAAC | 0.288
49 | GAAGTCAA | -0.0355
50 | AGCCTTTC | 0.00311

Row | Sequence | PBM E-score
51 | ATTCAACA | 0.204
52 | ATAGTCAT | -0.122
53 | AAAAGCCT | 0.126
54 | CCCCCCCG | -0.409
55 | ATTCGCGA | 0.0789
56 | CTGAATGA | 0.00529
57 | AAAGCCGT | 0.0462
58 | GCACGGGC | -0.113
59 | ATCTTTTA | 0.0822
60 | ACAGGGCC | -0.132
61 | ACGGTCGA | -0.224
62 | CGCATGCG | -0.0251
63 | AACCGTTG | -0.0773
64 | CGTGGACA | 0.0107
65 | AAAACTGC | -0.0209
66 | CTAGGAAC | 0.372
67 | CTACAGCC | 0.0807
68 | ATGATGTG | 0.048
69 | ATAGGTCC | -0.0381
70 | AACGTAAA | 0.236
71 | CGTCCGAA | -0.104
72 | GTCTTTTA | 0.048
73 | AACGGCGC | -0.145
74 | CACGGCAG | 0.143
75 | AGATTTTC | 0.00802

Row | Sequence | PBM E-score
76 | CGTCAGAC | -0.218
77 | GACGTCAA | 0.0781
78 | ACGCGTCT | 0.112
79 | CTGCGCTC | -0.242
80 | AGTGCCCG | 0.0343
81 | AACCCTAA | -0.0971
82 | ATAGAAGG | 0.0246
83 | AGCCCCTG | -0.0786
84 | GCAAGTGC | 0.0248
85 | ACTTATCT | -0.0445
86 | ACGGTTTA | 0.0145
87 | CCGGCACA | -0.362
88 | AGAGGCCG | -0.172
89 | ATATAAAA | 0.101
90 | CGATCGAG | -0.195
91 | GCATAACA | 0.271
92 | ATTGATGC | -0.0235
93 | CTCGTGAA | -0.115
94 | CCATCGGA | -0.346
95 | GCGGTTAA | -0.063
96 | GACCTAGC | -0.169
97 | CACGAGAA | 0.103
98 | GTGAACGA | -0.0441
99 | GCTTTTAC | 0.15
100 | ATCTTGGA | -0.102

Row | Sequence | PBM E-score
101 | ACTCTAGA | -0.144
102 | CAACGACG | 0.0644
103 | AGCGTGTG | 0.147
104 | ATAAACGA | 0.111
105 | CCCTAATC | -0.241
106 | ACGAAAGG | 0.153
107 | CATGCCCA | 0.0279
108 | GCGGCCGC | -0.354
109 | ACGAAGTC | -0.0333
110 | ACACTCAT | 0.125
111 | CAGACCGG | -0.14
112 | CTGAATCA | -0.0323
113 | GCATGGAC | -0.0715
114 | AGGCCAAC | 0.0556
115 | GTTGTTTA | 0.245
116 | CGAGACAC | -0.214
117 | CGCTTGAA | 0.127
118 | CAATCCCA | -0.226
119 | ATACATGG | 0.374
120 | AAACAATC | 0.0401
121 | ATCAGAGG | -0.218
122 | ATTAATGA | 0.00942
123 | ACGTGAGG | -0.137
124 | ATCGTGTC | 0.247
125 | CAGAGAAA | 0.118

Row | Sequence | PBM E-score
126 | AAGTCGGC | -0.189
127 | ACCAGTCG | 0.078
128 | AATTTACG | 0.203
129 | GAGATGCA | -0.207
130 | ATGCTGGG | -0.119
131 | AGGCGAAT | 0.15
132 | GGTACGAA | 0.0697
133 | GCTCACAC | -0.0638
134 | CGGTGTTC | -0.0692
135 | CTTTGATA | -0.0533
136 | AGGAGGAG | -0.164
137 | CAAAGCAG | 0.05
138 | AAAGCCCC | -0.237
139 | CCATGCTC | -0.179
140 | CAAAAGAA | 0.145
141 | CTCTGTGC | 0.00777
142 | CAAGATTA | -0.0424
143 | CTTGTCTC | -0.215
144 | AAACTTTC | -0.0392
145 | AAGGAGCC | -0.108
146 | AGGGGCGC | -0.0261
147 | ACAGGCGT | 0.172
148 | ATCTTTAA | 0.126
149 | ACTTATAT | 0.057
150 | AACAGCTG | 0.0407

Row | Sequence | PBM E-score
151 | AACTGCAC | -0.00246
152 | GCTGAAGA | -0.127
153 | AGAGAAAG | -0.213
154 | CGACGCAG | 0.0493
155 | TCCCGTAA | -0.0758
156 | AGATTGTG | -0.0264
157 | ATTTGCTC | -0.15
158 | CAGCTACC | -0.196
159 | CAATCCGG | -0.311
160 | ATTGCTCA | -0.018
161 | GCTTTCGA | -0.12
162 | AGTACACA | 0.313
163 | TCTCGACA | 0.174
164 | CTGGTTTA | 0.0553
165 | CACCTAAC | -0.0469
166 | ATGTCAGG | 0.231
167 | CCCGAGGA | -0.214
168 | ATTGTTTC | 0.0123
169 | CCACTTCG | -0.198
170 | CAACTGTA | 0.0387
171 | CGTTCCGC | -0.116
172 | GCTCCCAC | -0.262
